According to the supplement of paper PMC4967469:
IC50 is the fitted dose that halves viability relative to control wells, and lower means more sensitive; a limit (>, <) means that the fit lies beyond the doses tested. AUC, from the same fit, is the share of area under the viability curve across the 256-fold dose range; values near 1 show little effect. For part of these data: Any top dose called inferred was derived from the fitted curves, not read from the paper. For part of these data: Drugs with an entry number were screened twice under separate entries, and the two screens often disagree.

Tests used:
Assay in all cases: Viability of human cancer cell lines after 72 h of drug (GDSC screen)
[1] = compound: C/C=C(/C)C(=O)O[C@H]1C(C)=C2[C@H]([C@@H]1OC(=O)CCCCCCC)[C@@](C)(OC(C)=O)C[C@H](OC(=O)CCC)[C@@]1(O)[C@H]2OC(=O)[C@@]1(C)O [Thapsigargin]; conditions: top dose 0.512 µM; top dose inferred
Description: (§1)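 Human cancer cell lines in 384-well plates, medium with 10% serum, drug for 72 h over a 256-fold dose range (nine 2-fold or five 4-fold steps up to the top dose). Adherent lines were fixed and stained with the nucleic acid dye Syto60, suspension lines read with resazurin; signal relative to control wells, capped at 0 and 100%. One two-parameter sigmoid per drug and line, fitted in a mixed model over all curves with the slope shared within a line.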

[2] = compound: Cc1cnc(-c2cnc(NCCNc3ccc(C#N)cn3)nc2-c2ccc(Cl)cc2Cl)[nH]1 [CHIR-99021]
Description: as §1

[3] = compound: Cc1ccc(F)c(NC(=O)Nc2ccc(-c3cccc4[nH]nc(N)c34)cc2)c1 [ABT-869]; conditions: top dose 1.024 µM; top dose inferred
Description: as §1

[4] = compound: O=c1cc(-c2cccc3c2Sc2ccccc2S3)oc(N2CCOCC2)c1 [KU-55933]; conditions: top dose 10 µM
Description: as §1

[5] = compound: CCn1c(-c2nonc2N)nc2cnc(Oc3cccc(NC(=O)c4ccc(OCCN5CCOCC5)cc4)c3)cc21 [GSK269962A]; conditions: top dose 5 µM; screen: GDSC drug entry 1192; top dose inferred
Description: as §1

[6] = compound: COc1cc(O)c2c(c1)/C=C/C[C@H](O)[C@H](O)C(=O)/C=C\C[C@H](C)OC2=O [(5Z)-7-Oxozeaenol]; conditions: top dose 10 µM; top dose inferred
Description: as §1

[7] = compound: COc1nc(C)cnc1NS(=O)(=O)c1cccnc1-c1ccc(-c2nnco2)cc1 [Zibotentan]; conditions: top dose 20 µM; top dose inferred
Description: as §1

[8] = compound: C=CC(=O)Nc1cc(-n2c(=O)ccc3cnc4ccc(-c5cn[nH]c5)cc4c32)ccc1C [QL-X-138]; conditions: top dose 10.24 µM; top dose inferred
Description: as §1

[9] = compound: COc1cc2ncnc(-n3nc(-c4ccccn4)nc3N)c2cc1OC [CP466722]; conditions: top dose 16 µM; top dose inferred
Description: as §1

[10] = compound: C[C@]1(c2nc3c(C(N)=O)cccc3[nH]2)CCCN1 [ABT-888]; conditions: top dose 5 µM; top dose inferred
Description: as §1

[11] = compound: COc1cc(N2CCC(O)CC2)ccc1Nc1cc(Nc2ccccc2S(=O)(=O)C(C)C)c2cc[nH]c2n1 [MPS-1-IN-1]; conditions: top dose 20 µM; top dose inferred
Description: as §1

[12] = top dose 2.56 µM, screen: GDSC drug entry 154
[13] = top dose 10 µM, screen: GDSC drug entry 1241, top dose inferred

Cell Line	AUC [1]	IC50 [1] [µM]	AUC [2, 12]	IC50 [2, 12] [µM]	AUC [2, 13]	IC50 [2, 13] [µM]	AUC [3]	IC50 [3] [µM]	AUC [4]	IC50 [4] [µM]	AUC [5]	IC50 [5] [µM]	AUC [6]	IC50 [6] [µM]	AUC [7]	IC50 [7] [µM]	AUC [8]	IC50 [8] [µM]	AUC [9]	IC50 [9] [µM]	AUC [10]	IC50 [10] [µM]	AUC [11]	IC50 [11] [µM]
EFO-21 (ovary, adherent)	0.444	0.021	0.978	> 2.56	0.944	> 10	0.952	> 1.02	0.976	> 10	0.94	> 5	0.813	8.65	0.976	> 20	0.865	> 10.2	0.86	> 16	0.98	> 5	0.933	> 20
G-402 (soft tissue, adherent)	0.257	0.00499	0.969	> 2.56	0.937	> 10	0.801	0.703	0.964	> 10	0.798	3.33	0.693	2.63	0.976	> 20	0.718	3.32	0.763	7.63	0.972	> 5	0.897	> 20
H4 (glioma, adherent)	0.179	0.00352	0.963	> 2.56	0.895	> 10	0.986	> 1.02	0.986	> 10	0.801	2.41	0.689	2.1	0.982	> 20	0.869	9.21	0.896	> 16	0.947	> 5	0.927	> 20
HARA (lung squamous cell carcinoma, adherent)	0.496	0.0312	0.977	> 2.56	0.973	> 10	0.936	> 1.02	0.947	> 10	0.849	4.76	0.846	9.21	0.976	> 20	0.674	2.14	0.769	7.02	0.926	> 5	0.868	> 20
HCC-44 (lung adenocarcinoma, adherent)	0.045	< 0.002	0.986	> 2.56	0.933	> 10	0.984	> 1.02	0.944	> 10	0.587	0.537	0.678	1.94	0.924	> 20	0.835	6.51	0.782	6.5	0.986	> 5	0.859	15.9
